# Over roughly 33,000 sequences, “E-score (-0.5 to 0.5)” has its median near -0.016; the highest 2% begin near 0.32. This is one part of the list.
# Biological target: T1, Stp1 (UniProt B3LFK1)
# T1 sequence: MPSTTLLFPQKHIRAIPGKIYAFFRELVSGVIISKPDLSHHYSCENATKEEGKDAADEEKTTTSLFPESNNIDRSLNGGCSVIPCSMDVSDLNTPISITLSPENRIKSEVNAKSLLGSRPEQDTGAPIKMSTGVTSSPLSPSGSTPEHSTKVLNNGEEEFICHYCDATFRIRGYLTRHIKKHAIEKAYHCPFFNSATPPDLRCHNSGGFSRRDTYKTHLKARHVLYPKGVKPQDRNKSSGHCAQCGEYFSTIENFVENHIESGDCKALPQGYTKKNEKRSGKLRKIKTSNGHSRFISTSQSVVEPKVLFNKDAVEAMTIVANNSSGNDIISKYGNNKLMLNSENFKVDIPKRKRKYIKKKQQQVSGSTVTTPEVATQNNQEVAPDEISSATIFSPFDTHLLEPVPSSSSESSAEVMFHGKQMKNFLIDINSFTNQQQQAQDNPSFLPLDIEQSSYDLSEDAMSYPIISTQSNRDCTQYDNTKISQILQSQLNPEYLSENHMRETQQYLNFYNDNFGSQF
# Test: PBM E-score (8-mer binding enrichment) (E-score (-0.5 to 0.5)); higher = stronger / more preferred TF binding; most listed sequences are background and not binding sites
# Conditions: protein concentration: 200 nM; construct: GST-full length
# Experimental: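 Universal 'all 10-mer' protein binding microarrays (Agilent AMADID 015681) probed with GST-tagged S. cerevisiae TFs (full-length or DBD) made by in vitro transcription/translation (PURExpress), about 100-200 nM. Bound TF was detected with fluorescent anti-GST. Each ungapped 8-mer (which stands for itself and its reverse complement) is scored by the PBM enrichment score (E-score), a modified Wilcoxon-Mann-Whitney statistic from -0.5 to +0.5, computed with the Universal PBM Analysis Suite. Scale: above 0.35 generally sequence-specific binding.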
row,Sequence,PBM E-score
1,GTTTTAGA,0.098
2,CCAGGATC,-0.248
3,ATCACTCG,0.0999
4,CCCGCTCG,-0.0988
5,AGTTTGAA,0.153
6,CTCTCAGC,-0.132
7,ACCGCAGC,-0.119
8,ACAATTGA,-0.01
9,ACGCAGAA,0.0225
10,GTTTAAGA,-0.101
11,ATACCAGG,-0.209
12,AGATTAAC,0.136
13,CCACGGGC,-0.0442
14,CACACGGA,0.253
15,GGGCTACC,-0.352
16,CTGCGACA,-0.153
17,AAGCCAAG,-0.162
18,CATCGATG,-0.0742
19,ATAGTACG,0.0384
20,CAATGATC,-0.0883
21,ATTGGACA,0.00806
22,ATAGTTAG,0.0454

row,Sequence,PBM E-score
1,TAGGATGA,-0.0101
2,GTATTGTA,0.21
3,ATGTAGAC,-0.0825
4,ATATTGTA,0.131
5,CCTTACCG,0.109
6,AGCTCTAA,-0.22
7,CTCAAGAG,-0.256
8,CACTAATA,0.145
9,AGACACCT,-0.133
10,AGCATGCA,-0.219
11,CTTGTTGC,0.139
12,ATTAGCCG,0.236
13,TAACAACA,0.152
14,CACGTGCG,0.272
15,CACCTCCA,-0.0695
16,AAAAGCAC,-0.146
17,AAAAATTC,0.115
18,ACACGTTA,-0.109
19,ACCATAGC,-0.105
20,GGCTCGAA,0.173
21,TCTACCCA,-0.132
22,GATGAAGC,-0.127

row,Sequence,PBM E-score
1,GAGGACCC,-0.273
2,GTCTGGTA,-0.111
3,CGTATGAC,0.101
4,ATAATCAG,0.00958
5,CATGGGTA,-0.159
6,CGAGTCCC,-0.21
7,AAACCCAC,0.0438
8,ACATTGTC,0.142
9,ATAGCTGG,-0.156
10,AGGGGCGG,0.0498
11,ACCTAGCG,-0.112
12,CAATAGGG,-0.186
13,TATACCGA,-0.0108
14,CCAGCAAA,-0.00823
15,ATTGACAA,0.126
16,AAATACTA,0.161
17,AAATTTGC,0.273
18,CCGCTGTC,-0.0008
19,CACGTAAG,-0.0411
20,AAGCCTGC,-0.1
21,AGCCGCAA,0.188
22,CCGCTTTC,-0.0403

row,Sequence,PBM E-score
1,GCACCAGA,0.0442
2,TCACGAGA,-0.299
3,ACTGAAGC,0.00506
4,CACTCCTG,-0.138
5,ACAATAAT,0.125
6,CGACCTCG,-0.154
7,ATGCAAAG,0.0474
8,AATTAACG,0.185
9,GCGTTAGA,-0.0164
10,ATTACCTC,0.0362
11,AACGCGAC,-0.175
12,ATAGTCAG,-0.0295
13,CAAACGCG,0.3
14,GGGCTTCA,-0.215
15,TGATGCAA,-0.00861
16,GACAAACA,-0.135
17,ATCTGGTC,-0.215
18,CCCGAAAC,-0.0868
19,ACGTATAT,0.151
20,TGCCGACA,0.0314
